Source: the supplement of paper PMC4967469
IC50 is the fitted dose that halves viability relative to control wells, and lower means more sensitive; fits outside the tested doses are given as limits. The AUC spans the tested range (256-fold, ending at the top dose) of the same fit; values near 1 show little effect. For part of these data: The top dose, if marked as inferred, was calculated from the reported fits. For part of these data: Where an entry number is given, a second screen of the drug exists; the two often differ.

Tests used:
Assay in all cases: Viability of human cancer cell lines after 72 h of drug (GDSC screen)
[1] = compound: C/C=C(/C)C(=O)O[C@H]1C(C)=C2[C@H]([C@@H]1OC(=O)CCCCCCC)[C@@](C)(OC(C)=O)C[C@H](OC(=O)CCC)[C@@]1(O)[C@H]2OC(=O)[C@@]1(C)O [Thapsigargin]; settings: top dose 0.512 µM; top dose inferred
Method: (§1)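 Human cancer cell lines in 384-well plates, medium with 10% serum, drug for 72 h over a 256-fold dose range (nine 2-fold or five 4-fold steps up to the top dose). Adherent lines were fixed and stained with the nucleic acid dye Syto60, suspension lines read with resazurin; signal relative to control wells, capped at 0 and 100%. One two-parameter sigmoid per drug and line, fitted in a mixed model over all curves with the slope shared within a line.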

[2] = compound: C=CC(=O)Nc1cc(-n2c(=O)ccc3cnc4ccc(-c5cn[nH]c5)cc4c32)ccc1C [QL-X-138]; settings: top dose 10.24 µM; top dose inferred
Method: as §1

[3] = compound: CCn1c(-c2nonc2N)nc2cnc(Oc3cccc(NC(=O)c4ccc(OCCN5CCOCC5)cc4)c3)cc21 [GSK269962A]; settings: top dose inferred
Method: as §1

[4] = compound: COc1cc(N2CCC(O)CC2)ccc1Nc1cc(Nc2ccccc2S(=O)(=O)C(C)C)c2cc[nH]c2n1 [MPS-1-IN-1]; settings: top dose 20 µM; top dose inferred
Method: as §1

[5] = compound: COc1cc(O)c2c(c1)/C=C/C[C@H](O)[C@H](O)C(=O)/C=C\C[C@H](C)OC2=O [(5Z)-7-Oxozeaenol]; settings: top dose 10 µM; top dose inferred
Method: as §1

[6] = compound: COc1cc2ncnc(-n3nc(-c4ccccn4)nc3N)c2cc1OC [CP466722]; settings: top dose 16 µM; top dose inferred
Method: as §1

[7] = compound: COc1nc(C)cnc1NS(=O)(=O)c1cccnc1-c1ccc(-c2nnco2)cc1 [Zibotentan]; settings: top dose 20 µM; top dose inferred
Method: as §1

[8] = compound: C[C@]1(c2nc3c(C(N)=O)cccc3[nH]2)CCCN1 [ABT-888]; settings: top dose 5 µM; top dose inferred
Method: as §1

[9] = compound: Cc1ccc(-c2c(C(=O)CCl)n(CCCO)c3ncnc(N)c23)cc1 [CMK]; settings: top dose 4 µM; top dose inferred
Method: as §1

[10] = compound: Cc1ccc(F)c(NC(=O)Nc2ccc(-c3cccc4[nH]nc(N)c34)cc2)c1 [ABT-869]; settings: top dose 1.024 µM; top dose inferred
Method: as §1

[11] = compound: Cc1cnc(-c2cnc(NCCNc3ccc(C#N)cn3)nc2-c2ccc(Cl)cc2Cl)[nH]1 [CHIR-99021]
Method: as §1

[12] = compound: Nc1ccn([C@@H]2O[C@H](CO)[C@@H](O)[C@@H]2O)c(=O)n1 [Cytarabine]; settings: top dose 2 µM
Method: as §1

[13] = compound: O=c1cc(-c2cccc3c2Sc2ccccc2S3)oc(N2CCOCC2)c1 [KU-55933]; settings: top dose 10 µM
Method: as §1

[14] = top dose 2.5 µM, screen: GDSC drug entry 127
[15] = top dose 5 µM, screen: GDSC drug entry 1192
[16] = top dose 2.56 µM, screen: GDSC drug entry 154
[17] = top dose 10 µM, screen: GDSC drug entry 1241, top dose inferred

## NCI-H1876 (small cell lung carcinoma, adherent)
[1]
  AUC: 0.847
  IC50: 0.383 µM
[2]
  AUC: 0.573
  IC50: 1.02 µM
[3]; [14]
  AUC: 0.93
  IC50: > 2.5 µM
[3]; [15]
  AUC: 0.967
  IC50: > 5 µM
[4]
  AUC: 0.971
  IC50: > 20 µM
[5]
  AUC: 0.856
  IC50: 8.22 µM
[6]
  AUC: 0.819
  IC50: 9.27 µM
[7]
  AUC: 0.978
  IC50: > 20 µM
[8]
  AUC: 0.987
  IC50: > 5 µM
[9]
  AUC: 0.873
  IC50: 3.91 µM
[10]
  AUC: 0.984
  IC50: > 1.02 µM
[11]; [16]
  AUC: 0.987
  IC50: > 2.56 µM
[11]; [17]
  AUC: 0.986
  IC50: > 10 µM
[12]
  AUC: 0.865
  IC50: 1.81 µM
[13]
  AUC: 0.951
  IC50: > 10 µM

## NCI-H2081 (small cell lung carcinoma, suspension)
[1]
  AUC: 0.874
  IC50: > 0.512 µM
[2]
  AUC: 0.83
  IC50: 6.94 µM
[3]; [14]
  AUC: 0.97
  IC50: > 2.5 µM
[3]; [15]
  AUC: 0.93
  IC50: > 5 µM
[4]
  AUC: 0.972
  IC50: > 20 µM
[5]
  AUC: 0.969
  IC50: > 10 µM
[6]
  AUC: 0.857
  IC50: 14.2 µM
[7]
  AUC: 0.989
  IC50: > 20 µM
[8]
  AUC: 0.977
  IC50: > 5 µM
[9]
  AUC: 0.988
  IC50: > 4 µM
[10]
  AUC: 0.988
  IC50: > 1.02 µM
[11]; [16]
  AUC: 0.989
  IC50: > 2.56 µM
[11]; [17]
  AUC: 0.988
  IC50: > 10 µM
[12]
  AUC: 0.882
  IC50: > 2 µM
[13]
  AUC: 0.985
  IC50: > 10 µM

## NCI-H2135 (non-small cell lung carcinoma, adherent)
[1]
  AUC: 0.317
  IC50: 0.01 µM
[2]
  AUC: 0.715
  IC50: 2.54 µM
[3]; [14]
  AUC: 0.983
  IC50: > 2.5 µM
[3]; [15]
  AUC: 0.964
  IC50: > 5 µM
[4]
  AUC: 0.802
  IC50: 9.52 µM
[5]
  AUC: 0.974
  IC50: > 10 µM
[6]
  AUC: 0.899
  IC50: > 16 µM
[7]
  AUC: 0.978
  IC50: > 20 µM
[8]
  AUC: 0.985
  IC50: > 5 µM
[9]
  AUC: 0.974
  IC50: > 4 µM
[10]
  AUC: 0.991
  IC50: > 1.02 µM
[11]; [16]
  AUC: 0.988
  IC50: > 2.56 µM
[11]; [17]
  AUC: 0.99
  IC50: > 10 µM
[12]
  AUC: 0.991
  IC50: > 2 µM
[13]
  AUC: 0.981
  IC50: > 10 µM

## NCI-H2141 (small cell lung carcinoma, suspension)
[1]
  AUC: 0.676
  IC50: 0.0975 µM
[2]
  AUC: 0.804
  IC50: 4.97 µM
[3]; [14]
  AUC: 0.991
  IC50: > 2.5 µM
[3]; [15]
  AUC: 0.985
  IC50: > 5 µM
[4]
  AUC: 0.932
  IC50: > 20 µM
[5]
  AUC: 0.726
  IC50: 2.69 µM
[6]
  AUC: 0.878
  IC50: 15.5 µM
[7]
  AUC: 0.99
  IC50: > 20 µM
[8]
  AUC: 0.991
  IC50: > 5 µM
[9]
  AUC: 0.918
  IC50: > 4 µM
[10]
  AUC: 0.991
  IC50: > 1.02 µM
[11]; [16]
  AUC: 0.99
  IC50: > 2.56 µM
[11]; [17]
  AUC: 0.99
  IC50: > 10 µM
[12]
  AUC: 0.985
  IC50: > 2 µM
[13]
  AUC: 0.989
  IC50: > 10 µM
